Measured values reported in patent publication US10299477B2 (priority 2015, dated 2019).

Each compound was assayed on Colletotrichum orbiculare. Conditions: 250 ppm, sprayed 2.5 ml/pot before inoculation; evaluated 6-10 days after inoculation.

SMILES	Test H (control value class, anthracnose on cucumber)
COc1cc(F)c(-c2c(-c3cccc(F)c3F)cc(C)c(=O)n2C)c(F)c1 [Compound 565]	H (H shows more than 50% of control values)
COc1cc(F)c(-c2c(-c3cc(F)cc(F)c3Cl)cc(Cl)c(=O)n2CC(F)F)c(F)c1 [Compound 679]	H (H shows more than 50% of control values)
COc1cc(F)c(-c2c(-c3cc(F)cc(F)c3Cl)ccc(=O)n2CC(F)F)c(F)c1 [Compound 678]	H (H shows more than 50% of control values)
CCn1c(-c2c(F)cc(OC)cc2F)c(-c2cccc(F)c2C)cc(Cl)c1=O [Compound 699]	H (H shows more than 50% of control values)
CCn1c(-c2c(F)cc(F)cc2F)c(-c2cccc(F)c2C)cc(Br)c1=O [Compound 682]	H (H shows more than 50% of control values)
CCn1c(-c2c(F)cc(F)cc2F)c(-c2ccc(OC)cc2Cl)cc(Br)c1=O [Compound 747]	H (H shows more than 50% of control values)
CCn1c(-c2c(F)cc(F)cc2F)c(-c2cccc(OC)c2Cl)cc(Br)c1=O [Compound 620]	H (H shows more than 50% of control values)
CCn1c(-c2c(F)cccc2F)c(-c2cc(OC)cc(OC)c2Cl)ccc1=O [Compound 728]	H (H shows more than 50% of control values)

Same assay, conditions: in vivo

SMILES	Test H control value	Test H (control value class)
CCn1c(-c2c(F)cccc2F)c(-c2cccc(Cl)c2)cc(Br)c1=O [Compound 179]	L (key: H shows more than 50% of control values; L shows 50% or less of control values)	–
COc1ccc(Cl)c(-c2cc(Cl)c(=O)n(C3CC3)c2-c2c(F)cccc2F)c1 [Compound 498]	–	H (key: H shows more than 50% of control values; L shows 50% or less of control values)
CCn1c(-c2c(F)cc(F)cc2F)c(-c2cc(F)cc(F)c2Br)ccc1=O [Compound 812]	–	H (key: H shows more than 50% of control values; L shows 50% or less of control values)
Cc1cc(-c2cc(F)ccc2Cl)c(-c2c(F)cc(F)cc2F)n(C)c1=O [Compound 758]	–	H (key: H shows more than 50% of control values; L shows 50% or less of control values)
CCn1c(-c2c(F)cccc2F)c(-c2ccccc2C)cc(Br)c1=O [Compound 162]	L (key: H shows more than 50% of control values; L shows 50% or less of control values)	–
CCn1c(-c2c(F)cccc2F)c(-c2cccc(F)c2)ccc1=O [Compound 153]	H (key: H shows more than 50% of control values; L shows 50% or less of control values)	–
CCn1c(-c2c(F)cccc2F)c(-c2c(F)cccc2Cl)ccc1=O [Compound 385]	–	H (key: H shows more than 50% of control values; L shows 50% or less of control values)
CCn1c(-c2c(F)cccc2Cl)c(-c2cc(OC)cc(OC)c2Cl)ccc1=O [Compound 152]	H (key: H shows more than 50% of control values; L shows 50% or less of control values)	–
COc1cc(F)c(-c2c(-c3cc(F)cc(F)c3)cc(Br)c(=O)n2C)c(F)c1 [Compound 808]	–	H (key: H shows more than 50% of control values; L shows 50% or less of control values)
Cn1c(-c2c(F)cccc2F)c(-c2cc(Cl)ccc2Cl)cc(Cl)c1=O [Compound 447]	–	H (key: H shows more than 50% of control values; L shows 50% or less of control values)
CCn1c(-c2c(F)cc(F)cc2F)c(-c2cc(F)cc(F)c2F)ccc1=O [Compound 464]	–	H (key: H shows more than 50% of control values; L shows 50% or less of control values)
CCn1c(-c2c(F)cccc2F)c(-c2cccc(Cl)c2F)ccc1=O [Compound 472]	–	H (key: H shows more than 50% of control values; L shows 50% or less of control values)
CCCN1C(=O)CCC(c2cc(OC)ccc2Cl)=C1c1c(F)cccc1F [Compound 389]	–	L (key: H shows more than 50% of control values; L shows 50% or less of control values)
